# Source: PubChem BioAssay AID662 (National Center for Advancing Translational Sciences (NCATS), 2007)
# Among all 71,000 compounds or so, about 1,800 (2.5%) were called active. The inconclusive results got no clear call from the source; some entries with a clear call stand among them for comparison. Calls come from the whole dose curve; as a rule, active = well fitted activation curve with a large enough effect in the signal ratio, with a control signal flat (not every such curve was filed as active); inconclusive = small, poorly fitted or top-dose-only effect, or effect the other way, or a change in a side signal; inactive = flat fitted curve, though single readings scatter; the % refers to the signal ratio. Potencies beside an inconclusive call are fits to weak or partial responses and may not hold up.
# Experiment: Cell signaling CRE-BLA (Fsk stim); for activity change, negative = inhibition: % of control where 0% means no effect
# Details: CHO CRE-bla reporter (cAMP response element driving beta-lactamase), forskolin EC10, beta-lactamase ratio; activity change, negative = inhibition: at 38.2 µM (top of the series) unless noted
# Outline: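 CHO CRE-bla cells, overnight plating in Opti-MEM with 0.5% dialyzed FBS; cpd titration + EC10 NKH 477, 3 h 37 °C; CCF4 2 h RT; ex 405/em 460 vs 530 ratio → %Activity, AC50.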
# Potency is the fitted concentration of half-maximal effect; tags give direction and shape of the fitted curve.
Compound,Potency,"activity change, negative = inhibition"
COc1cc2c(cc1OC)CN(C(=O)CSc1nnc3scc(-c4ccccc4)n13)CC2,"inconclusive: 10 µM [rising, partial curve]",
COc1cccc(OC)c1-c1nn2c(-c3cc(-c4ccccc4)n[nH]3)nnc2s1,"inconclusive: 5.01 µM [rising, partial curve]",
Cc1ccc(S(=O)(=O)NCCCC(=O)C=[N+]=[N-])cc1,inactive,
CC1(C)CC(=O)C2=C(C1)OC(N)=C(C#N)C2c1ccccc1 (stereo not given),,inconclusive: 25% [at 7.6 µM]
Cc1cccc(OCc2nnc(SCc3cc(=O)n4cc(Br)ccc4n3)o2)c1,"inconclusive: 12.6 µM [rising, partial curve]",
C=C[C@H](N)CCC(=O)O,,inconclusive: -16.5%
COc1cc2c(cc1OC)C(C(=O)NCc1cccnc1)C(c1cccnc1)N(C)C2=O (stereo not given),inactive,
CCCCN(CC)C(=O)c1ccc(Cl)c(Cl)c1,,inconclusive: -2.71%
O=C(COC(=O)Cc1cccc(C(F)(F)F)c1)NCC1CCCO1 (stereo not given),,inconclusive: -8.07%
COC(=O)c1ccc(C(=O)OC)c(NC2=NS(=O)(=O)c3ccccc32)c1,inactive,
COc1ccc(OCc2nn3c(-c4ccccn4)nnc3s2)cc1,inactive,
CCOC(=O)c1sc(NC(=O)c2c(C)nn(Cc3ccccc3)c2C)cc1C,,inconclusive: -22.3%
CCc1c(C)c(C#N)c2nc3ccccc3n2c1N(C)C,active: 2.51 µM,
Cc1nonc1NC(=O)Nc1cccnc1,,inconclusive: -26%
O=C(Nc1ccc(-c2noc(-c3cccs3)n2)cc1)c1cccnc1,"inconclusive: 31.6 µM [falling, single point]",
COc1ccccc1CC1(C)NC(=O)N(CC(=O)N2CC(C)OC(C)C2)C1=O (stereo not given),inactive,
Cc1cc(C)c(C#N)c(SCc2ccc3c(c2)OCO3)n1,"inconclusive: 10 µM [rising, partial curve]",
COC(=O)c1c(N)c2ccccc2[nH]c1=O,,inconclusive: 2.68%
Cc1cc(C)cc(C(=O)N(C)[C@H](Cc2ccc(-c3ccccc3)cc2)C(=O)N[C@@H](Cc2c[nH]c3ccccc23)C(=O)O)c1,,inconclusive: -25.4%
O=C(CCn1c(=O)oc2ccccc21)Nc1ccccc1,inactive,
CC1CCCC(C)N1C(=O)C1CC(c2ccc(F)cc2)=NO1 (stereo not given),"inconclusive: 0.251 µM [rising, partial curve]",
CCOC(=O)c1c(-c2ccccc2)[nH]c2ccc(O)cc12,inactive,
COc1ccc(CCNC(=O)CSc2nnc(-c3ccccc3)o2)cc1OC,,inconclusive: 8.61%
COc1ccc(N2CCN(C(=O)C(CCSC)N=C3NS(=O)(=O)c4ccccc43)CC2)cc1 (stereo not given),,inconclusive: -9.28%
Cc1nn2c(-c3cccc(NC(=O)CN4CCOCC4)c3)nnc2c2ccccc12,"inconclusive: 6.31 µM [rising, partial curve]",
CC1(C(=O)O)CCC(C(=O)N2CCOCC2)C1(C)C (stereo not given),,inconclusive: -8.47%
CC1CCN(c2nc(-c3ccc(F)cc3)cc(C(F)(F)F)n2)CC1,inactive,
O=C(Nc1ccc(S(=O)(=O)N2CCc3ccccc32)cc1)c1ccc2c(c1)OCO2,"inconclusive: 5.01 µM [rising, full curve, poor fit]",

Compound,Potency,"activity change, negative = inhibition"
C=CCn1c(NC(=O)c2ccc(C)cc2)c(C#N)sc1=N,"inconclusive: 12.6 µM [rising, single point]",
O=c1oc2ccccc2n1CSC1=NCCS1,"inconclusive: 10 µM [falling, partial curve]",
O=C(Oc1ccc(N(Cc2cccs2)C2=NS(=O)(=O)c3ccccc32)cc1)c1ccco1,inactive,
CSc1nnc2c(n1)OC(c1cccn1C)N(C(C)=O)c1ccccc1-2 (stereo not given),inactive,
O=C1Nc2ccc(S(=O)(=O)N3CCOCC3)c3cccc1c23,,inconclusive: 15.1%
CN(C)Cc1ccccc1-c1ccc2ncnc(N3CCOCC3)c2c1,inactive,
CC(C)CSc1nc2c(c(=O)[nH]c(=O)n2C)n1CCc1ccccc1,inactive,
COc1ccc(S(=O)(=O)NCC(=O)N(CC(=O)NCC2CCCO2)c2c(C)cccc2C)cc1 (stereo not given),inactive,
COc1ccc(CNc2ncnc3ccc(-c4ccccc4CN(C)C)cc23)c(OC)c1,inactive,
CCCCOC(=O)C1=C(C)Nc2ncnn2C1c1cccc(OC)c1 (stereo not given),,inconclusive: 23.2%
Cc1cc2ccccc2c(=O)n1CC(=O)NCC(=O)N1CCCC1,,inconclusive: -27.2%
CCOC(=O)CC(=O)CSc1ccc2nnc(-c3ccc(F)cc3)n2n1,,inconclusive: 25.5%
Cc1ccc(/C=N/c2sc3c(c2C#N)CCCCC3)o1,inactive,
Cc1ccccc1-c1ccc2ncnc(NC3CC3)c2c1,"inconclusive: 12.6 µM [rising, partial curve]",
COc1cccc(Cn2c(=O)c(-c3ccc(F)cc3)nc3cncnc32)c1,"inconclusive: 10 µM [rising, single point]",
CCC(C)NC(=O)CSc1nc2n[nH]c(C)c2c(=N)n1-c1ccc(OC)cc1 (stereo not given),"inconclusive: 7.94 µM [rising, partial curve]",
CCOC(=O)c1nn(-c2ccccc2)c(=O)c(C#N)c1C,inactive,
Cc1cc2c(N=O)c(NO)ccc2[nH]1,,inconclusive: -20.7%
CCN(CC)S(=O)(=O)c1cccc2cc(C(=O)O)c(O)cc12,inactive,
CS(=O)(=O)Nc1cccc(-c2ccc3ncnc(Nc4ccccc4)c3c2)c1,"inconclusive: 12.6 µM [rising, partial curve]",
CCOc1ccc(C(=O)C(c2ccccc2)N2CCOCC2)cc1 (stereo not given),inactive,
CC(=O)Nc1cc(OC(C)=O)c2nonc2c1OC(C)=O,,inconclusive: -15.1%
Cc1ccc(CCC(=O)Nc2nccs2)o1,,inconclusive: -1.11% [at 7.6 µM]
O=C(O)CCn1ccnc1-c1ccccc1,inactive,
Oc1ccccc1C(=S)N1CCCCC1,inactive,
Cc1cc(C(=O)OCn2nnc3ccccc3c2=O)c(C)n1-c1ccccc1,active: 3.98 µM,
CCOC(=O)Nc1ccc2ncn(C)c(=O)c2c1,"inconclusive: 12.6 µM [rising, single point]",
